Data as given in PubChem BioAssay AID504332 (National Center for Advancing Translational Sciences (NCATS), 2011).
Screen size: about 350,000 compounds; about 31,000 (8.9%) were called active. Inconclusive results, whose numbers are uncertain, are shown with a selection of clear calls. Calls follow the shape of the dose curve; as a rule, active = well fitted inhibition curve with a large enough effect; inconclusive = small, poorly fitted or top-dose-only effect; inactive = no such curve, though single readings can be large or run the other way. A potency beside an inconclusive call is a rough fit, not a confirmed value.

Target: Histone-lysine N-methyltransferase EHMT2 (Homo sapiens) (UniProt Q96KQ7)
Sequence of UniProt Q96KQ7 (Q96KQ7 whole entry, looked up): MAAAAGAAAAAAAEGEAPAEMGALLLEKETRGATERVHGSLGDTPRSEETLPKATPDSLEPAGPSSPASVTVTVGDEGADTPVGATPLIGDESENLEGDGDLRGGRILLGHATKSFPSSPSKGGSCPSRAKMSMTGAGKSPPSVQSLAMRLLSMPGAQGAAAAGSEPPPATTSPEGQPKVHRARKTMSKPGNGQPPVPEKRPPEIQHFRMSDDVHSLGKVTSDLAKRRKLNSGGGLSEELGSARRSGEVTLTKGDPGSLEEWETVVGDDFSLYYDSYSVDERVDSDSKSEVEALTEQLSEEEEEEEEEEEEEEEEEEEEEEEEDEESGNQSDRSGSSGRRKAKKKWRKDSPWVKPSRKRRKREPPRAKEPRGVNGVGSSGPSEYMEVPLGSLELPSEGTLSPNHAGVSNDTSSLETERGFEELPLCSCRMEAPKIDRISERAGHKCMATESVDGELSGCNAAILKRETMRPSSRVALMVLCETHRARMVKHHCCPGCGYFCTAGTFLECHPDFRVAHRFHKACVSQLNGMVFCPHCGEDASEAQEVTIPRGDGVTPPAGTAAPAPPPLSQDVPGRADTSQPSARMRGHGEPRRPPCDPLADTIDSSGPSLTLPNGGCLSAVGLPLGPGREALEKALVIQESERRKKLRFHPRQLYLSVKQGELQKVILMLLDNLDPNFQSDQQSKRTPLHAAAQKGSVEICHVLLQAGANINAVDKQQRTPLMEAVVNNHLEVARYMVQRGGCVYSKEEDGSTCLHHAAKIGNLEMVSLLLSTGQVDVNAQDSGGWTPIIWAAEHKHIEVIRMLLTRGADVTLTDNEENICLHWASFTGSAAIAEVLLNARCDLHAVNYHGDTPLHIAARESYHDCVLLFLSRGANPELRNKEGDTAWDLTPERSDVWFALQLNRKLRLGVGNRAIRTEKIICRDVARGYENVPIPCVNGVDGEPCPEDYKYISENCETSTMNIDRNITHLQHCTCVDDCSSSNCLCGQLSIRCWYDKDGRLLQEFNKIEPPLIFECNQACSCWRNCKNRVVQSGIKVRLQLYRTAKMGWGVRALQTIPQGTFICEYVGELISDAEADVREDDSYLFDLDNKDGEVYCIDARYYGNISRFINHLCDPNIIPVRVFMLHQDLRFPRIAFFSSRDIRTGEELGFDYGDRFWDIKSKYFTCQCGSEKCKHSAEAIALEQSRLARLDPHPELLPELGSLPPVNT
Test: qHTS Assay for Inhibitors of Histone Lysine Methyltransferase G9a; also: nearly all actives have a fitted effect of over 75% in size
Conditions: G9a H3K9 monomethylation, AlphaScreen, 2 h; activity, negative = inhibition: at 59 µM (top of the series) unless noted
In short: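 Methyltransferase reactions run at room temperature for 2 h (20 nM enzyme, 500 nM biotin-H3K9 peptide, 20 uM SAM) after a 15 min compound preincubation; product detected by AlphaScreen beads and anti-H3K9me1 antibody.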
% is scaled to controls: 0 for no effect and ±100 for the full control effect; potency is read from the fitted curve at half-maximal effect; tags tell the direction and shape of the fitted curve.

SMILES	Potency	activity, negative = inhibition
CCCCn1c(N)c(N(CC)C(=O)c2cccc(S(=O)(=O)N3CCN(C)CC3)c2)c(=O)[nH]c1=O	inconclusive: 79.4 µM [inhibitor, partial curve, poor fit]	–
CN1C(=O)C2(c3ccccc31)N(c1ccccc1)C(=O)CS2(=O)=O (centres undefined)	inactive	–
CCc1nnc(NC(=O)c2cc(=O)c3cc(C)c(C)cc3o2)s1	inactive	–
COC(=O)c1ccc(COC(=O)c2cnc(Cl)c(Cl)c2)cc1	inactive	–
CC(C)c1onc(C(=O)N2CCN(C(c3ccccc3)c3ccccc3)CC2)c1[N+](=O)[O-]	inconclusive: 79.4 µM [inhibitor, partial curve, poor fit]	–
COC(=O)c1ccc(NC(=O)c2c(NCc3ccc(C)o3)sc3c2CCCC3)cc1	inconclusive: 3.98 µM [inhibitor, partial curve, poor fit]	–
C/C(=N\NC(=O)c1nc2ccccn2c1C)c1ccc2c(c1)OCO2	inconclusive: 3.55 µM [inhibitor, single point]	–
O=C(Nc1nnc(-c2ccco2)o1)C1CCCCC1	inconclusive: 28.2 µM [inhibitor, single point]	–
COc1cc(C(=O)Nc2nnc(SCC(=O)NCC3CCCO3)s2)cc(OC)c1OC (centres undefined)	active: 70.8 µM	–
CCn1c(SCC(=O)Nc2ccc(F)cc2)nnc1C1CC1	inactive	–
O=C(/C=C/N1CCOCC1)c1coc2ccccc12	inconclusive: 89.1 µM [inhibitor, partial curve, poor fit]	–
Nc1ccc(OC(=O)Nc2ccc(O)cc2)cc1	inconclusive: 89.1 µM [inhibitor, single point]	–
OCCC1CN(Cc2ccc3cc(Cl)ccc3n2)CCN1Cc1ccsc1 (centres undefined)	inconclusive: 1.41 µM [inhibitor, full curve, poor fit]	–
Cc1ccc(S(=O)(=O)NC(C(=O)Oc2ccc3c(C(F)(F)F)cc(=O)oc3c2)c2ccccc2)cc1 (centres undefined)	active: 7.08 µM	–
CCCSc1n[nH]c(NC(C)=O)n1	inconclusive: 79.4 µM [inhibitor, partial curve, poor fit]	–
Cc1cccc(NC(=S)NNC(=O)c2ccco2)c1	–	inactive: -8.87% [at 12.7 µM]
COC(=O)[C@@H](NC(=O)NCc1ccco1)C(C)C	–	inactive: 8.82% [at 2.33 µM]
CCN1CCN(S(=O)(=O)c2cc(C(=O)O)ccc2Cl)CC1	inconclusive: 70.8 µM [inhibitor, partial curve]	–
Cc1ccc(C(=O)CCC(=O)N2CCC(C(N)=O)CC2)s1	–	inactive: 2.01% [at 2.33 µM]
CN1CCN(C(=O)C(=O)Nc2c3c(nn2-c2ccc(F)cc2)CSC3)CC1	inactive	–
COc1cc2[nH]c(=S)n(N(C(C)=O)C(C)=O)c(=O)c2cc1OC	–	inconclusive: -88.7% [inhibitor]
S=c1[nH]nc(CN2CCCCC2)n1-c1ccc(Cl)cc1	active: 17.8 µM	–

SMILES	Potency	activity, negative = inhibition
CCc1nc(NCCC(C)C)c2nnn(Cc3ccccc3)c2n1	inconclusive: 89.1 µM [inhibitor, single point]	–
COc1ccc(C(=O)/C=C/Nc2c(C)n(C)n(-c3ccccc3)c2=O)c(OC)c1	inconclusive: 50.1 µM [inhibitor, partial curve]	–
CC(OC(=O)/C=C/c1ccc(Br)cc1)C(=O)N1CCOCC1 (centres undefined)	inactive	–
O=C(CSc1nc2ccccc2s1)N1CCCCC1	inconclusive: 39.8 µM [inhibitor, single point]	–
COc1cccc(/C=C2\N=C(c3c(-c4ccccc4)noc3C)OC2=O)c1OC	inactive	–
CN(C)C(=O)c1ccc(-c2cc(NCc3cccnc3)ncn2)cc1	–	inactive: 10.5% [at 0.501 µM]
CCCCn1c(SCc2ccc(Cl)cc2)nc2c1c(=O)[nH]c(=O)n2C	inconclusive: 3.55 µM [inhibitor, partial curve, poor fit]	–
COc1ccc(/C=C2\CCc3ccccc3C2=O)cc1Cn1cccn1	inconclusive: 89.1 µM [inhibitor, single point]	–
COc1ccc(OC)c(/C=N/NC(=O)c2cc3c(OC)c(OC)ccc3[nH]2)c1	inconclusive: 31.6 µM [inhibitor, single point]	–
CC1CCCCN1CCCNc1ccc(C(CC(N)=O)NC(=O)Cc2ccc(Cl)cc2)cc1[N+](=O)[O-] (centres undefined)	inconclusive: 89.1 µM [inhibitor, single point]	–
CN(Cc1ccccc1)c1nc(N)c([N+](=O)[O-])c(Nc2cccc(F)c2)n1	inconclusive: 39.8 µM [inhibitor, partial curve]	–
Cc1ccc(NC(=O)C(=O)NCc2ccco2)c(C)c1	inactive	–
CC(=O)Oc1ccc2nc(CN3C(=O)c4ccc([N+](=O)[O-])cc4C3=O)oc(=O)c2c1	inconclusive: 63.1 µM [inhibitor, partial curve, poor fit]	–
CC(C)(C)c1ccc(C(=O)c2c[nH]c(C(=O)NCCCn3ccnc3)c2)cc1	inconclusive: 89.1 µM [inhibitor, single point]	–
O=C(Nc1nc(-c2ccccc2)c(-c2ccccc2)o1)c1ccc(F)cc1	inactive	–
Cc1csc(NC(=O)CSc2nsc(SCC(=O)Nc3nc(C)cs3)c2C#N)n1	inconclusive: 50.1 µM [inhibitor, partial curve, poor fit]	–
Cc1ccc2[nH]c(-c3ccc(F)cc3F)cc(=O)c2c1	inconclusive: 3.55 µM [inhibitor, partial curve, poor fit]	–
CC(=O)c1cccc(NC(=O)C2C3C=CC(C4CC34)C2C(=O)O)c1 (centres undefined)	inactive	–
CSCCC(NC(=O)c1ccccc1Br)C(=O)NCc1ccc(F)cc1 (centres undefined)	inconclusive: 0.178 µM [inhibitor, partial curve, poor fit]	–
CCOC(=O)C(=NC1CCS(=O)(=O)C1)NNc1cc(Cl)ccc1Cl (centres undefined)	–	inconclusive: -101% [inhibitor]
Cc1ccc(N2CC(NC(=O)C(=O)c3c(C)[nH]c4ccccc34)CC2=O)cc1C (centres undefined)	inconclusive: 35.5 µM [inhibitor, partial curve, poor fit]	–
Cc1ccc(S(=O)(=O)N2CCN(C(=O)COC(=O)CNC(=O)c3ccc(Cl)cc3Cl)CC2)cc1	inconclusive: 50.1 µM [inhibitor, partial curve]	–
